Screen size: about 310,000 compounds; about 14,000 (4.5%) showed an effect of 50% or more. The effect is printed as a negative number. Some of the results follow.
The molecules below were run against human ether-à-go-go-related gene (hERG) potassium channel (human, UniProt Q12809) (assay: primary screen, population patch clamp on CHO cells stably expressing hERG).
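Also: peak tail current of the secondary pulse compared with the same well before compound.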

human ether-à-go-go-related gene (hERG) potassium channel, sequence (Q12809 whole entry, looked up): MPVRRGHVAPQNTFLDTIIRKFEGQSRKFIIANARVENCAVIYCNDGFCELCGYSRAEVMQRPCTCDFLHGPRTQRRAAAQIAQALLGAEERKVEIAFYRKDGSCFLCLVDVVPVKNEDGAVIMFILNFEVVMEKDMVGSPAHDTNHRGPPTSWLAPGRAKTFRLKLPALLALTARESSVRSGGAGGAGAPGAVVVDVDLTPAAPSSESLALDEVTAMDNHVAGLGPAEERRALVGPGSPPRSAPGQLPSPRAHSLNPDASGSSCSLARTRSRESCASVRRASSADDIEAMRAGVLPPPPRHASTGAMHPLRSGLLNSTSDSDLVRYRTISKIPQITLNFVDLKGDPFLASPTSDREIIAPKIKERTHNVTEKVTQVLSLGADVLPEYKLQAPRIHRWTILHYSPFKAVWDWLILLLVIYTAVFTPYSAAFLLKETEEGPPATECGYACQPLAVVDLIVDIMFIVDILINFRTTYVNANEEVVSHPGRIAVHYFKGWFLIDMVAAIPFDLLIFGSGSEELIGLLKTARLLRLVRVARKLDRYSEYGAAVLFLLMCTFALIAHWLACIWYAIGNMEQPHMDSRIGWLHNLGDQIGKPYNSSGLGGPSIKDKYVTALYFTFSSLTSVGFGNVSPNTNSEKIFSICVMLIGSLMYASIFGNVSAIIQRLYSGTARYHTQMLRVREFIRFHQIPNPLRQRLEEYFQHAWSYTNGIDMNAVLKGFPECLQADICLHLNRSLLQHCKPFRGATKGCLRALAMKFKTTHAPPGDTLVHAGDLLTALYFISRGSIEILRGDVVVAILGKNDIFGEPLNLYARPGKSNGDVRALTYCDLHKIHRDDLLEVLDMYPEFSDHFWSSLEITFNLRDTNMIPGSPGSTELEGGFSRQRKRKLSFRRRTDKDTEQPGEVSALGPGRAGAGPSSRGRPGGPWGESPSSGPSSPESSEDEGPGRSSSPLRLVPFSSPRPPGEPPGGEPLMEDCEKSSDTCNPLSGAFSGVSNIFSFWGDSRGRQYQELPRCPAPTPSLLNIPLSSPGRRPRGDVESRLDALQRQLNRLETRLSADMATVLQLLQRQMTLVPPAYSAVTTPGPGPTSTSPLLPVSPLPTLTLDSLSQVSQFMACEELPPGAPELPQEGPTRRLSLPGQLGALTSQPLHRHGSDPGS

Structure (SMILES) | hERG current change (%, negative = inhibition) at 10uM [%]
CC(C)C(=O)NC(Nc1ccc(S(N)(=O)=O)cc1)C(Cl)(Cl)Cl (stereo not drawn) | -1.51
Br.CC(=O)c1sc(Nc2ccc(C)cc2)nc1C | 3.98
CCNC(=S)N(Cc1cc2cc(C)ccc2[nH]c1=O)C1CCCC1 | -8.06
COc1cc(O)oc1C=Nc1ccc(C(F)(F)F)cc1 | -24.4
CC(=O)Nc1ccc(S(=O)(=O)NNc2ccc([N+](=O)[O-])cc2)cc1 | 5.42
C/C=C(\C)C(=O)N[C@@H](c1ccccc1)[C@@H](O)C(=O)O[C@H]1C[C@@]2(O)[C@@H](OC(=O)c3ccccc3)C3[C@](C)(C(=O)[C@H](O)C(=C1C)C2(C)C)[C@@H](O)C[C@H]1OC[C@@]31OC(C)=O (stereo partly drawn) | 6.13
CCOC(=O)COc1ccccc1/C=N/Nc1nnc2c3ccccc3n(C)c2n1 | 10.4
Cc1cc(NC(=O)NC2CCCN2S(=O)(=O)c2ccc(Cl)cc2)no1 (stereo not drawn) | -22.8
CNC(=O)C(=O)NCC1OCCN1S(=O)(=O)c1ccc([N+](=O)[O-])cc1 (stereo not drawn) | -17.8
COc1cccc(C2c3c(C)nn(-c4ccc([N+](=O)[O-])cc4)c3N=C3C(=O)Nc4ccccc4N32)c1 (stereo not drawn) | 6.88
Cc1ccccc1-c1cc(C(=O)Nc2sc(C)c(C)c2C(N)=O)c2ccccc2n1 | 17
COc1ccc(OC)c(CNC(=O)CCc2nc(-c3cccs3)no2)c1 | -1.05
CN(C)C1=NCCN1CCC1CCCC1 | 1.87
CC(=O)/C=C(/C)NC(Cc1c[nH]c2ccccc12)C(=O)O (stereo not drawn) [3713680] | -2.95
O=C(Cn1nc(-c2ccccc2)ccc1=O)NCCCN1CCOCC1 | 1.56
C=CCn1c(Sc2nc(C)cs2)nc2c1c(=O)[nH]c(=O)n2C | 4.13
O=C(O)c1cc(N/N=C/c2ccncc2)ccc1Cl | 9.7
Cc1ccc([N+](=O)[O-])cc1NC(=O)c1ccc(-c2ccccc2)cc1 | 5.12
CCOc1cc(C(=O)NC(C)CCc2ccccc2)cc(OCC)c1OCC (stereo not drawn) | -3.09
CCO[C@@H]1OC(C(=O)Nc2ccccc2)=C[C@H](c2ccccc2)[C@H]1CCCO | -31.2
COc1ccc(C(=O)NC(=S)NC(C)c2ccccc2)cc1 (stereo not drawn) | 21.8
CCN(CC)S(=O)(=O)c1ccc(N(C)Cc2ccc(C(F)(F)F)cc2)nc1 | 3.01
CCCCNCc1nc2ccccc2c(=O)[nH]1.Cl | 5.81
Cc1ccc(C(C(=O)NC2CCCC2)N(C(=O)Cc2cccs2)c2ccc(C)c(C)c2)o1 (stereo not drawn) | -26.1
Cc1ccc(NC2CCCN(C(=O)c3cnsn3)C2)cc1C (stereo not drawn) | 5.9
CC1CCN(C(=O)COC(=O)c2cc(Cl)cc(Cl)c2N)CC1 | -19.9
O=C1CC(SCc2nc3ccccc3[nH]2)C(=O)N1c1ccc(F)cc1 (stereo not drawn) | 1.5

Structure (SMILES) | hERG current change (%, negative = inhibition) at 10uM [%]
Cc1ccccc1NS(=O)(=O)c1ccc(-c2ccc(=O)[nH]n2)o1 | -2.13
Cc1cccc(NC(=O)c2cc(NC(=O)c3ccccc3)ccc2N2CCCCC2)c1 | 1.58
CCCCN(C(=O)Cc1ccc(S(=O)(=O)N2CCOCC2)s1)c1ccccc1 | -30.2
Cc1cc(NS(=O)(=O)c2ccc(NC(=O)c3cc(-c4cccnc4)nc4ccc(Cl)cc34)cc2)no1 | 1.95
COc1ccccc1N1CCN(/N=C(\C)c2ccc(O)cc2)CC1 | 12.8
NC(=O)C1CCN(C(c2ccccc2Cl)c2nnnn2Cc2ccc3c(c2)OCO3)CC1 (stereo not drawn) | -25.8
COc1ccc(Cn2nnnc2C(c2cc3cc(C)ccc3[nH]c2=O)N2CCOCC2)cc1 (stereo not drawn) | -50.2
CCC(=O)Nc1ccc(C(=O)CSc2nc(N)cc(N)n2)cc1 | 5.78
CC12CCC(C(=O)NCc3ccccc3Cl)(C(Br)C1=O)C2(C)C (stereo not drawn) | 14.6
COc1ccc(N2CCN(CCCNC(=O)C(=O)c3c[nH]c4ccccc34)CC2)cc1 | -69.7
CC(C)O.COc1cccc(C2C3=C(CC(C)(C)CC3=O)Nc3n[nH]c(C)c32)c1 (stereo not drawn) | 7.39
CC1=CC(C)(C)N(C(=O)CSc2nccn2C)c2cc(C)ccc21 | -0.933
COc1cc(NS(=O)(=O)c2ccc(C)c(C)c2)c(OC)cc1Cl | -12.3
O=C(CN(Cc1ccc(F)cc1)C(=O)CNS(=O)(=O)c1ccc(F)cc1)NCc1ccco1 | 12.6
COC(=O)C1CCN(C(=O)c2ccccc2Oc2ccccc2)CC1 | 1.87
O=C(N/N=C/c1ccc(C(=O)O)cc1)C1=NNC(c2ccccc2)(c2ccccc2)C1 | 7.44
Cc1cccc(/C=N\N=C\c2cccc(C)c2)c1 | 16.1
O=[N+]([O-])/C(C(Cl)=C(Cl)Cl)=C1\Nc2ccccc2O1 | 13
CN(CCc1cn[nH]c1)C(=O)CC1C(=O)NCCN1Cc1ccccc1C(F)(F)F (stereo not drawn) | 17.8
O=C(N/N=C/c1cccs1)c1ccccn1 | 14
Cc1cccc(Nc2nc(-c3ccc(F)c(C)c3)cs2)n1 | 15.8
COc1ccc(S(=O)(=O)Cc2ccc(C(=O)N3CCCC3)o2)cc1 | 1.74
Cc1ccc2c(c1)S/C(=C/c1ccc[n+](CCO)c1)N2C.[I-] | 16
COc1ccc(N2CCN(C(=O)Cn3nnc(-c4ccc(N(C)C)cc4)n3)CC2)cc1 | 2.72
Cc1ccc(Nc2cc(C)nc3nc(C)nn23)cc1 | -24.5
COCCn1c(SCC(=O)N2CCCC(C)C2)nnc1-c1ccco1 (stereo not drawn) | 13.2
C/C(=N\NC(=O)COc1cccc(C)c1)c1ccc2ccccc2c1O | 0.465
